Test results taken from the BET-seq Pho4 binding data (Le et al. 2018).
The list shows a part of the results. The energies were worked out here from pooled read counts, against the library average; single values are noisy.

target: T1, Pho4 (S. cerevisiae) (UniProt P07270); test: relative binding free energy (BET-seq); higher = weaker binding; details: reference: library average
T1 sequence: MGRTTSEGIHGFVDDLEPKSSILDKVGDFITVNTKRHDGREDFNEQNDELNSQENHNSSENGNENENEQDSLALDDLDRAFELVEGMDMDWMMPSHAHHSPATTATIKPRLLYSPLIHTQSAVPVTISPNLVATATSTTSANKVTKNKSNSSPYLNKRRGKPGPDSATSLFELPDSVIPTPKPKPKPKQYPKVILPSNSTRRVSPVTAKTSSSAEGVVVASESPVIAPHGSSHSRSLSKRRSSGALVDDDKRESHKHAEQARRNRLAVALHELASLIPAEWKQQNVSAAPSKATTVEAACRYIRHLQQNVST

Relative binding free energy, -0.25 kcal/mol:
AGGGCCACGTGCGGTG
TGTGGCACGTGGCGTC

Relative binding free energy, -0.07 kcal/mol:
GCAAGCACGTGGGGGC
TGTGCCACGTGCGTGC
GCGGGCACGTGCGGTT

Relative binding free energy, 0.46 kcal/mol:
GTAATCACGTGAGTTC

Relative binding free energy, 0.32 kcal/mol:
GTGTCCACGTGAGCGT
CGATTCACGTGAGGTT

Relative binding free energy, 0.12 kcal/mol:
CCGGGCACGTGAGGGT
GGGGTCACGTGGTACG
AGGGTCACGTGTTTCA
CGGGACACGTGATTAG

Relative binding free energy, 0.45 kcal/mol:
GTTTTCACGTGGAGAA

Relative binding free energy, -0.09 kcal/mol:
GGCGGCACGTGGCAGA
ATGTGCACGTGTGGCT
CGCGTCACGTGGTCGG

Relative binding free energy, -0.3 kcal/mol:
TAAGGCACGTGGGCGC

Relative binding free energy, 0.22 kcal/mol:
GGGCTCACGTGCTTGG
CTGCTCACGTGTGGTG
CATGACACGTGGTAAG
GGGGACACGTGAGGTT

Relative binding free energy, -0.29 kcal/mol:
TAGGGCACGTGCTGTA

Relative binding free energy, 0.25 kcal/mol:
GCCTACACGTGGTTGT
AGTTACACGTGTACAG
GGTAACACGTGAGGCT
ATGTTCACGTGATGCT
GGCGTCACGTGTATGT

Relative binding free energy, 0.23 kcal/mol:
TTGTACACGTGAATGT
TATGACACGTGAGAGT

Relative binding free energy, -0.26 kcal/mol:
TTGAGCACGTGGGGCG

Relative binding free energy, -0.03 kcal/mol:
GGCAACACGTGGAGGG
TGTATCACGTGGTCGG

Relative binding free energy, 0.03 kcal/mol:
TAAAACACGTGTGGCG
GGTGACACGTGTACGG
GGAGGCACGTGTTTAT
CTGTACACGTGGTGCG

Relative binding free energy, -0.15 kcal/mol:
TCGGGCACGTGGGAGT
TTCGGCACGTGTGTAG

Relative binding free energy, 0.11 kcal/mol:
AGGGACACGTGTTTCT
CGCGTCACGTGTGGGG
GTTTACACGTGACTGT
CGTTCCACGTGGTGGT

Relative binding free energy, 0.14 kcal/mol:
CATTTCACGTGCGTGT
GGGATCACGTGGGGCC
ATTTACACGTGACGGG
AAGGGCACGTGAGGGT
GTTCTCACGTGCTGTG

Relative binding free energy, 0.35 kcal/mol:
GGGTACACGTGATCTG

Relative binding free energy, 0.36 kcal/mol:
TGGTACACGTGACTTA
GATTTCACGTGTTCAG

Relative binding free energy, 0.05 kcal/mol:
GGTATCACGTGGGAAG
GTAGCCACGTGTGGGT
TGATGCACGTGTGGTG
TTTGACACGTGTCGGA
CATGTCACGTGGGGGT
GGCGTCACGTGCGTGG
TGTAGCACGTGTAACT
ATATGCACGTGTTTAC
CGGGGCACGTGTGAAT

Relative binding free energy, 0.09 kcal/mol:
GTCCGCACGTGATGTG
GTCTACACGTGGGATG
CGTATCACGTGTGTGT
TATTGCACGTGTTTTT
GGCCGCACGTGTGGGC
CTATACACGTGGTTGT
ATCAACACGTGGAGGT

Relative binding free energy, -0.11 kcal/mol:
TGCGACACGTGGTTGG
ATCGTCACGTGGGGTA
TTGGCCACGTGTTTAG
AGGGTCACGTGGGCAA

Relative binding free energy, -0.01 kcal/mol:
TGTGACACGTGTTTCT
TGAAACACGTGGGAGG
GCGGGCACGTGTAGTA
AGGTACACGTGTGCGT
TTTGTCACGTGGCATA
ATAGACACGTGTGCGG
GTATGCACGTGATTAA
TTTTGCACGTGCTTTA
TACGTCACGTGGGCTG

Relative binding free energy, 0.19 kcal/mol:
GTAGTCACGTGATCGG
AGAAACACGTGATTGG
TCCGTCACGTGTAGGT
ATCTTCACGTGTAGGT

Relative binding free energy, 0.17 kcal/mol:
AGAGTCACGTGGTAGA
GTAGGCACGTGAGTGG
TTCTCCACGTGTTTTG
GTATTCACGTGGTTAA

Relative binding free energy, 0.01 kcal/mol:
AAGTGCACGTGCAAGG
GTGGACACGTGGGGAC
GGCGGCACGTGGAGCA
TGAGGCACGTGCAGTG
AGTAGCACGTGGTTGA
GAATGCACGTGTAGTG

Relative binding free energy, -0.19 kcal/mol:
GTGGCCACGTGCGTTT
TAGTGCACGTGGGATC

Relative binding free energy, 0 kcal/mol:
TTGGTCACGTGGGGCC
TTAGTCACGTGCATAT

Relative binding free energy, 0.28 kcal/mol:
TGATGCACGTGAGTCT
GGGCTCACGTGGGGAA
TGATTCACGTGTCGTG

Relative binding free energy, 0.33 kcal/mol:
GTTGGCACGTGAGATA
TATTTCACGTGTCTTC
TCTTTCACGTGAGGTA

Relative binding free energy, -0.37 kcal/mol:
TAAGGCACGTGGGCGT

Relative binding free energy, 0.2 kcal/mol:
TTGTTCACGTGTCCTG
GGTCACACGTGTTCTT
TTTTACACGTGTTTGG
CTTGACACGTGATTTT
TGAGTCACGTGGAGTT

Relative binding free energy, 0.42 kcal/mol:
ATGTTCACGTGAAGCT

Relative binding free energy, -0.04 kcal/mol:
CAAAGCACGTGTGGTG
GCGGGCACGTGTGTTG
TTCTGCACGTGTTGAG
TGTGCCACGTGGTAGG
TGTATCACGTGCCTGG
TGGGACACGTGGGAAT

Relative binding free energy, 0.29 kcal/mol:
AGGTTCACGTGACGGG
AGTATCACGTGGACTT
GGTTTCACGTGTATTC

Relative binding free energy, 0.04 kcal/mol:
GTAGGCACGTGTGAGG
GTAAACACGTGGGCTA

Relative binding free energy, 0.08 kcal/mol:
TTTGTCACGTGGGCCA
AGGGTCACGTGGAAGC
AGGGTCACGTGCGGGC
GCTTACACGTGGGTCG
GGAGTCACGTGGTACT
GTCTGCACGTGTGGCT

Relative binding free energy, -0.12 kcal/mol:
GAGAGCACGTGTAGGT
GACTGCACGTGGGTGT
AGGGCCACGTGTGATG
TGCAGCACGTGGGATA
GTGAGCACGTGTAGCT
GGGAGCACGTGTGACG

Relative binding free energy, 0.18 kcal/mol:
AAGTTCACGTGCCGGG
ATGATCACGTGTTGGA
TTGATCACGTGTGAAA
AGAATCACGTGGCTGG

Relative binding free energy, 0.34 kcal/mol:
CTGATCACGTGAGAGG

Relative binding free energy, -0.1 kcal/mol:
TTAGGCACGTGGAGAT
AGGGGCACGTGGTGCC
TTTGACACGTGTACTG

Relative binding free energy, -0.21 kcal/mol:
GGGAGCACGTGGGGTC

Relative binding free energy, -0.18 kcal/mol:
AAGTGCACGTGGGCGG
TTAGGCACGTGTTGCA

Relative binding free energy, 0.06 kcal/mol:
TATCACACGTGTTTGG
GGGGACACGTGTAGTA
ATTATCACGTGGGGAT
ATGGTCACGTGCTGGG
AGGTTCACGTGATAAG

Relative binding free energy, 0.13 kcal/mol:
TTAGTCACGTGTAAGG
TAAATCACGTGTTCTT
GGCGACACGTGGTTAG

Relative binding free energy, 0.27 kcal/mol:
TCGTTCACGTGTTTGG
CTCTTCACGTGGTGGA
CGGTTCACGTGGAGGA

Relative binding free energy, -0.05 kcal/mol:
GGGGACACGTGGGTGG
TAGTGCACGTGTTCAG
CTAGGCACGTGTCTTG
TCTGGCACGTGTGGTA

Relative binding free energy, -0.14 kcal/mol:
GGCCGCACGTGGGGAT
TCGGGCACGTGGGCTC
TGTTACACGTGCGCGT

Relative binding free energy, -0.16 kcal/mol:
CCGGGCACGTGGTGAG
CGTGGCACGTGGGATC

Relative binding free energy, 0.24 kcal/mol:
AACTTCACGTGTGTTA
GGGGTCACGTGTTAGT
TATTTCACGTGGATTG
TGGGACACGTGAGAAG
TGATTCACGTGGTGTG
TGTCTCACGTGGCGGT
CTTTGCACGTGAGGTT
AATCTCACGTGTAGTG
AGTTTCACGTGTGCTG

Relative binding free energy, 0.52 kcal/mol:
GTGTTCACGTGAGGGT

Relative binding free energy, 0.21 kcal/mol:
TAGTTCACGTGTTATG
GATTACACGTGCGGGT
TGGTGCACGTGAAGCG
TGAATCACGTGTGTGT
AGTTTCACGTGGCCAT

Relative binding free energy, 0.26 kcal/mol:
TTTTACACGTGAGAGA

Relative binding free energy, 0.49 kcal/mol:
GGATTCACGTGAAGGA

Relative binding free energy, -0.17 kcal/mol:
TTGGCCACGTGGGTGT

Relative binding free energy, 0.07 kcal/mol:
CTGGTCACGTGGAGGG
ATAGTCACGTGATGGT
TATATCACGTGTTTCT
CCGGGCACGTGTGGCT
TGAGTCACGTGGGGCT
AGGAGCACGTGATTAT

Relative binding free energy, 0.3 kcal/mol:
AGTTTCACGTGGTGCA

Relative binding free energy, -0.02 kcal/mol:
GGGCACACGTGGGTTG
TTCGCCACGTGTTAGT
GAAGACACGTGCGGTG
TATGACACGTGGTGTC
TATCGCACGTGTGCGT

Relative binding free energy, 0.16 kcal/mol:
TTTATCACGTGTTCAT
GCGTACACGTGTAGTT
GATTACACGTGGGGTC
TGTATCACGTGCCTTT
GTAAGCACGTGGAGTC

Relative binding free energy, 0.37 kcal/mol:
GTGGCCACGTGAGGTT

Relative binding free energy, 0.1 kcal/mol:
GGAGGCACGTGACGCT

Relative binding free energy, -0.13 kcal/mol:
AGTGCCACGTGGCGGT
GGGACCACGTGGGGAG

Relative binding free energy, 0.02 kcal/mol:
AGTGCCACGTGATTTG
TTTGGCACGTGGAGCC
GGCGGCACGTGCTGAG

Relative binding free energy, -0.24 kcal/mol:
ATTGGCACGTGGTGCG
ACGGTCACGTGGGGTG
TCTTGCACGTGGGTTT
GCTAGCACGTGGGGTA

Relative binding free energy, -0.22 kcal/mol:
GAGAGCACGTGGTTGA

Relative binding free energy, -0.08 kcal/mol:
AAGGGCACGTGGTTGT
TAGCGCACGTGGAGTT
CGTTGCACGTGTGTGT
GAATGCACGTGGGTGG
ATTCGCACGTGGGATT
GACGGCACGTGGTGTT

Relative binding free energy, 0.15 kcal/mol:
ATTCACACGTGTGAGT
GGTATCACGTGTCTAG
GTTTACACGTGGTAGA
CGGGTCACGTGTGGAG
GATCACACGTGGAGTG
TTTGTCACGTGTTGGG

Relative binding free energy, 0.31 kcal/mol:
GATCGCACGTGAGTTG
GGTTACACGTGTAATA
CGGTTCACGTGTTGCT
GGTTGCACGTGAAGTG

Relative binding free energy, -0.06 kcal/mol:
CAGTGCACGTGTGGGA
TTGGGCACGTGATAGA
TGAGTCACGTGGGCAG
